Out of some 420,000 compounds screened, about 50,000 (12%) were called active. The inconclusive results got no clear call from the source; some entries with a clear call stand among them for comparison. Calls come from the whole dose curve; as a rule, active = well fitted inhibition curve with a large enough effect; inconclusive = small, poorly fitted or top-dose-only effect; inactive = flat fitted curve, though single readings scatter. No potency is given beside an inconclusive call; the fits are too rough.
Test: qHTS for Inhibitors of human tyrosyl-DNA phosphodiesterase 1 (TDP1): qHTS in cells in presence of CPT; note: nearly all actives have a fitted effect of over 55% in size
Conditions: chicken DT40 Tdp1-/-;hTDP1 cells + 20 nM CPT, ATP luminescence, 48 h; activity change, negative = growth inhibition: at 46.2 µM (top of the series) unless noted
Procedure, shortened: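 Cell growth measured by CellTiter-Glo luminescence after a minimum 48 h, 37 C compound exposure with 20 nM CPT in Tdp1-knockout DT40 cells stably expressing hTDP1, seeded 400/well; qHTS titration format.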
In the case of CC(Sc1nnnn1-c1ccc(O)cc1)C(=O)NC1CCCCC1C (stereo not drawn), the Potency is reported as “inactive”. With CC(=O)c1cccc(NS(=O)(=O)c2ccc(N/C=C/C(=O)c3ccc(F)cc3)cc2)c1 the Potency was active: 11.6 µM. With Cc1ccc(-c2nc3ccccn3c2Nc2ccc3c(c2)OCO3)o1 the Potency was inconclusive [inhibitor, single point]. For COc1ccc(Cl)cc1NC(=S)Nc1ccc(Cl)cn1, the Potency was “inactive”. For CCCc1[nH]c(=O)c(C#N)c2c1CCCC2, the Potency was “inactive”. In the case of CN1CCN(c2ccc(CNC(=O)C3Cc4c(-c5ccccc5Oc5ccccc5)ccnc4O3)cc2)CC1 (stereo not drawn), the Potency is reported as inconclusive [inhibitor, single point]. For Cc1ccc2cc(C#N)c(NCCNC(=O)C3CC3)nc2c1C, the Potency was active: 14.6 µM. For Cc1ccc(NC(=O)C(Cc2ccccc2)n2cccc2)cc1C (stereo not drawn), the Potency was active: 11.6 µM. In the case of CSc1ncc(Cl)c(C(=O)Nc2ccc(C)c(C)c2)n1, the Potency is reported as “inactive”. In the case of O=c1oc2cc(O)ccc2cc1-c1ccc(F)cc1, the Potency is reported as active: 20.6 µM. In the case of C=CCC(CC=C)(CNC(=O)C(=O)Nc1ccc(C(=O)OCC)cc1)c1ccccc1, the Potency is reported as “inactive”. With CCOc1ccc(NC(=O)COC(=O)c2ccccc2OCC(=O)N(C)C)cc1 the Potency was “inactive”. In the case of C=CCOC(=O)C1=C(C)NC(C)=C(C(=O)OCC=C)C1c1cccs1, the Potency is reported as inconclusive [inhibitor, partial curve, poor fit]. In the case of O=S(=O)(Nc1ccc(-c2nc3cccnc3s2)cc1)c1cccs1, the Potency is reported as “inactive”. In the case of O=C(N/N=C/c1cccs1)c1n[nH]c2c1CCC2, the Potency is reported as active: 4.11 µM. For O=C(/C=C/c1cn(CC(O)CN2CCCCCC2)c2ccccc12)c1ccc(Br)cc1 (stereo not drawn), the Potency was active: 16.4 µM. In the case of COc1ccccc1Cc1c(-c2ccc(OC)c(OC)c2)nc2ccc(Br)cn12, the Potency is reported as active: 18.4 µM. In the case of Cc1cc2nc(-c3cccc(NC(=O)CSc4ccc(Cl)cc4)c3)oc2cc1C, the Potency is reported as active: 16.4 µM. In the case of CCC(NS(=O)(=O)c1ccc2c(c1)NC(=O)C(C)C(=O)N2)c1cccs1 (stereo not drawn), the Potency is reported as “inactive”. With O=C(OCc1cn([C@H]2CN(CC3CCCCC3)[C@@H](c3ccc(Cl)cc3)C[C@@H]2O)nn1)c1ccccc1 the Potency was inconclusive [inhibitor, partial curve, poor fit]. In the case of CCOC(=O)c1cnc2ccc(OC)cc2c1Nc1ccc2c(c1)OCCO2, the Potency is reported as inconclusive [inhibitor, single point]. For N=C(N)SCc1nc2ccccc2c(=O)n1-c1ccccc1, the Potency was inconclusive [inhibitor, single point]. With CCOC(=O)c1cc(-c2ccc(C)cc2)n(CC(=O)NC2CCCCCC2)c1C the Potency was active: 23.1 µM. In the case of C[C@H](c1ccccc1)N1C[C@H](COCc2ccccc2)Oc2cc(N3CCC[C@H]3C(N)=O)ccc2S1(=O)=O, the Potency is reported as inconclusive [inhibitor, single point]. With CCSc1nnnn1-c1cccc(C(=O)O)c1 the Potency was “inactive”. For COc1ccc2nc(NC(=O)c3ccccc3-c3ccccc3C(=O)O)sc2c1, the Potency was “inactive”. With CCCN(C(=O)c1cc2c(s1)-c1c(C)cccc1OC2)c1ccc(OCC)cc1 the Potency was active: 5.17 µM. In the case of O=C(NCc1ccc(Cl)cc1)c1cnn2ccccc12, the Potency is reported as inconclusive [inhibitor, single point]. In the case of O=C(N=C1SC2CS(=O)(=O)CC2N1CCc1ccc(F)cc1)C1CCCCC1 (stereo not drawn), the Potency is reported as “inactive”. In the case of COc1cc(C(=O)NCC(c2cccs2)N2CCOCC2)ccc1OCc1ccc(Cl)cc1 (stereo not drawn), the Potency is reported as active: 6.51 µM. With CC(C)c1ccc(Nc2nc3c(S(=O)(=O)c4ccc(Br)cc4)nnn3c3ccsc23)cc1 the Potency was inconclusive [inhibitor, partial curve]. In the case of O=C(Nc1cccnc1)c1sc(Nc2ccccc2F)nc1-c1ccccc1, the Potency is reported as inconclusive [inhibitor, full curve]. For Cc1ccc(C(=O)Nc2cccc(C(=O)O)c2)cc1S(=O)(=O)N1CCOCC1, the Potency was “inactive”. In the case of O=C(Nc1nc(=O)c2ccccc2s1)c1ccc(Cl)cc1, the Potency is reported as inconclusive [inhibitor, single point]. In the case of Cc1csc(=O)n1CC(=O)OCC(=O)c1c(N)n(CC(C)C)c(=O)n(C)c1=O, the Potency is reported as inconclusive [inhibitor, partial curve]. With Cc1ccc2c(c1)[nH]c1c(=O)n(Cc3ccco3)cnc12 the Potency was inconclusive [inhibitor, single point]. For CCOC(=O)C1=CN(Cc2cccc(Br)c2)S(=O)(=O)N(CC)C1C (stereo not drawn), the Potency was inconclusive [inhibitor, single point]. With COc1ccc(C2c3[nH]c4ccc(OC)cc4c3CCN2C(=O)Nc2ccccc2)cc1 (stereo not drawn) the Potency was active: 23.1 µM. With O=C(Nc1cccc(S(=O)(=O)NC2=NCCC2)c1)c1c(F)cccc1Cl the Potency was inconclusive [inhibitor, single point]. In the case of O=c1[nH]ncc(N2CCN(C(c3ccccc3)c3ccccc3)CC2)c1Cl, the Potency is reported as active: 20.6 µM. For Cc1ccc(C)c(-n2c(-c3csc(C)c3)n[nH]c2=S)c1, the Potency was “inactive”. For O=C1C(=Cc2ccco2)CCC1=Cc1ccco1, the Potency was active: 23.1 µM. With CCN1C(=O)C(CC(=O)Nc2cc(C)ccc2C)SC1=Nc1ccc(S(N)(=O)=O)cc1 (stereo not drawn) the activity change, negative = growth inhibition was inconclusive: -35.1% [inhibitor]. With O=C(Nc1c(Cl)cccc1Cl)c1cc(-c2cccc(O)c2)on1 the Potency was inconclusive [inhibitor, single point]. In the case of Cc1c(NC(=O)Nc2ccc(C#N)cc2)c(=O)n(-c2ccccc2)n1C, the Potency is reported as “inactive”. In the case of CSCCC(C(=O)Nc1c(C)cccc1C)N1CCN(c2ccc(F)cc2)CC1 (stereo not drawn), the Potency is reported as inconclusive [inhibitor, single point]. For Cc1c(C(=O)NC2CCCc3ccccc32)cccc1[N+](=O)[O-] (stereo not drawn), the Potency was inconclusive [inhibitor, single point]. In the case of O=S1(=O)CC(N2CCN(Cc3ccccc3F)CC2)CN1Cc1cn(Cc2cccc(C(F)(F)F)c2)nn1 (stereo not drawn), the Potency is reported as inconclusive [inhibitor, single point]. In the case of CCOC(=O)C1=CN(Cc2cccc(F)c2)S(=O)(=O)N(C)C1CCc1ccccc1 (stereo not drawn), the Potency is reported as inconclusive [inhibitor, single point]. In the case of O=C(/C=C/c1ccc(Cl)cc1)OCC(=O)c1ccc[nH]1, the Potency is reported as “inactive”. For COc1cc(NC(=S)NC(=O)c2ccc(C)cc2C)ccc1NC(=O)c1cccs1, the Potency was inconclusive [inhibitor, single point]. In the case of O=c1[nH]c(Cc2cccs2)nc2ccccc12, the Potency is reported as inconclusive [inhibitor, partial curve]. For O=C(NCc1ccc(Cl)cc1)c1cccc(S(=O)(=O)N2CCCC2)c1, the Potency was inconclusive [inhibitor, partial curve]. With CCOc1ccccc1-c1cnc(NC)cn1 the Potency was inconclusive [inhibitor, partial curve, poor fit]. With Cc1noc(/C=C/N(C)C)c1S(=O)(=O)N1CCCC(C(=O)NC2CCCCC2)C1 (stereo not drawn) the Potency was inconclusive [inhibitor, single point]. For COc1ccc(NC(=O)C2(C)CCN2Cc2ccccc2OC(F)F)cc1OC (stereo not drawn), the Potency was inconclusive [inhibitor, partial curve, poor fit]. For Cc1ccccc1NC(=O)C1CC(=O)N(Cc2ccccc2)C1 (stereo not drawn), the Potency was “inactive”. With CC(=O)Nc1ccc(S(=O)(=O)Nc2cccc(-c3nc4ccccc4o3)c2)cc1 the Potency was inconclusive [inhibitor, single point]. For FC(F)(F)c1cccc(-c2cc(C3CCNCC3)[nH]n2)c1, the Potency was inconclusive [inhibitor, single point]. In the case of CC1CC(C)CN(CCCNC(=O)c2ccc3c(c2)NC(=O)C(N2CCCCC2)S3)C1 (stereo not drawn), the Potency is reported as inconclusive [inhibitor, partial curve]. In the case of COC(=O)Cc1c(C)c2cc3c(c(C)c2oc1=O)OCN(CCc1ccc(OC)cc1)C3, the Potency is reported as inconclusive [inhibitor, partial curve]. For CCN(CCN(C)C)C(=O)C1CCN(S(=O)(=O)c2c(C)noc2/C=C/c2ccccc2F)CC1, the Potency was active: 2.91 µM. In the case of COc1ccc(C(=O)c2c(C)oc3ccc(O)c(CN4CCOCC4)c23)cc1, the Potency is reported as inconclusive [inhibitor, partial curve]. With O=C(Nc1cc(C(F)(F)F)ccc1F)C1Cc2c(-c3ccccc3Oc3ccccc3)ccnc2O1 (stereo not drawn) the Potency was inconclusive [inhibitor, single point]. With CCn1c(CNC(=O)Cc2ccc(OC)cc2)nnc1SCC(=O)c1ccc(Br)cc1 the Potency was “inactive”. In the case of O=C(Nc1ccccn1)c1ccc(Cl)c(S(=O)(=O)N2CCCC2)c1, the Potency is reported as “inactive”. For COc1ccc(OC)c(NC(=S)N(CCc2c(C)[nH]c3ccccc23)Cc2cccs2)c1, the Potency was inconclusive [inhibitor, single point]. With O=C(Nc1ccc(C(=O)N2CCN(c3ccccn3)CC2)cc1)c1ccc(Br)o1 the Potency was inconclusive [inhibitor, single point]. For CCOC(=O)c1ccc(NC(=O)c2ccc(C)c(S(=O)(=O)N3CCOCC3)c2)cc1, the Potency was inconclusive [inhibitor, single point]. In the case of Cc1ccc(CNC(=O)Cn2nnc(C(=O)Nc3ccc(Br)cc3)c2N)cc1, the Potency is reported as inconclusive [inhibitor, single point]. For Cc1ccccc1OCC(=O)OCn1nnc2ccccc2c1=O, the Potency was “inactive”. In the case of C/C=C/c1ccc(OCC(=O)Nc2ccncc2)c(OC)c1, the Potency is reported as active: 18.4 µM. For COc1ccc(S(=O)(=O)N2CCOCC2)cc1NC(=O)CSc1n[nH]c(C(C)C)n1, the Potency was “inactive”.
% is set by controls: 0 for no effect and ±100 for the full control effect; potency is the fitted concentration of half-maximal effect; tags give direction and shape of the fitted curve.
